Results reported in PMC4336329 (PLoS ONE, 2015).
The whole screen tested about 310,000 compounds, of which about 14,000 (4.5%) showed an effect of 50% or more. The effect is printed as a negative number. This is one part of the list.

Target: human ether-à-go-go-related gene (hERG) potassium channel (human, UniProt Q12809)
Assay: primary screen, population patch clamp on CHO cells stably expressing hERG
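Also: peak tail current of the secondary pulse compared with the same well before compound.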

human ether-à-go-go-related gene (hERG) potassium channel, sequence (Q12809 whole entry, looked up): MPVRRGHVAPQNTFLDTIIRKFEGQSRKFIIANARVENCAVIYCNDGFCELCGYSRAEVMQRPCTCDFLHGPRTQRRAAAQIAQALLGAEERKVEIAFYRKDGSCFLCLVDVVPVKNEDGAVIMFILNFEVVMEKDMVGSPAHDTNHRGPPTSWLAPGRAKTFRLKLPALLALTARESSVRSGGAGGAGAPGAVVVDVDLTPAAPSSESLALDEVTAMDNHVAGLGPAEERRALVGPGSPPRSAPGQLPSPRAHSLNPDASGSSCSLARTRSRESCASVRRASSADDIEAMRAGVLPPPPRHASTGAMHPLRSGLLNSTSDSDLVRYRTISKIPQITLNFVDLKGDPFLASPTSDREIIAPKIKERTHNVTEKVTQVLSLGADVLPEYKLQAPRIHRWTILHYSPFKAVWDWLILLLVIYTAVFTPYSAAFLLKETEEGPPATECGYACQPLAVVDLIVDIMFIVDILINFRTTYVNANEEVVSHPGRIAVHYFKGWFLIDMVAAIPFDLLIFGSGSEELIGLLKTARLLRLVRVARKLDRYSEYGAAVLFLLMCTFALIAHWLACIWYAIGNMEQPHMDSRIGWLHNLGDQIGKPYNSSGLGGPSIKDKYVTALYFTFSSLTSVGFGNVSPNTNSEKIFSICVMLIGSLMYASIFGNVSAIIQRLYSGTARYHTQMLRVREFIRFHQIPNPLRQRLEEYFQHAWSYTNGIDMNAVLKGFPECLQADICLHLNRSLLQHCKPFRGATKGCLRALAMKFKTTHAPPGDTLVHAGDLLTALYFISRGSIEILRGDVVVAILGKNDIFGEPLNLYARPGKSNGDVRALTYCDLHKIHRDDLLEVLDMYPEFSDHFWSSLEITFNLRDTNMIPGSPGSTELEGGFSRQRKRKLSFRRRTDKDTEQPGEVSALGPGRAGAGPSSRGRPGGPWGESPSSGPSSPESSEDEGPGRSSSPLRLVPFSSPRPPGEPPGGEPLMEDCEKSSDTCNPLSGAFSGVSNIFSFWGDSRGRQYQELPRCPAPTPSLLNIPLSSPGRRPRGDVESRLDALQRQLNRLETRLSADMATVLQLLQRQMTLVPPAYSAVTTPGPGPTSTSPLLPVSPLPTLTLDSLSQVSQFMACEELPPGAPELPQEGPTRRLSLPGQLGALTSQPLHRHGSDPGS

Going from `Cc1cccc(NC(=O)c2cc([N+](=O)[O-])ccc2Cl)c1O` to `O=C(Nc1cccc2ccccc12)c1ccccc1Cl`, the “hERG current change (%, negative = inhibition) at 10uM” value rises from 6.16% to 6.68%.

Going from `O=C(Oc1cccc(/C=N/Nc2nc(Nc3ccccc3)nc(N3CCOCC3)n2)c1)c1ccco1` to `CNc1nc(C(=O)O)nc(N2CCOCC2)n1`, the “hERG current change (%, negative = inhibition) at 10uM” value falls from 9.05% to 3.83%.

Going from `Brc1ccc(CSc2nnc3ccccn23)cc1` to `COc1nc(Cc2ccc(Cl)cc2)nc2ccccc12`, the “hERG current change (%, negative = inhibition) at 10uM” value falls from -18.7% to -29.2%.

Compared with `Clc1ccccc1CN1CCN(c2ncccn2)CC1`, `CCc1ccc(N2CC(C(=O)N3CCN(c4ccccn4)CC3)CC2=O)cc1` (stereo not shown) is lower in “hERG current change (%, negative = inhibition) at 10uM” value: 10.5% for the first, -24.3% for the second.

Going from `Cc1cccc(OCCn2cnc(Cl)c2Cl)c1` to `Cc1cccc(OC2CCN(Cc3nc(CC4CC4)no3)CC2)c1`, the “hERG current change (%, negative = inhibition) at 10uM” value falls from 4.18% to -1.64%.

First: O=C1NCCCc2c1oc1cc(Br)c(O)c(Br)c21
Second: Cc1oc2cc3oc(=O)cc(C)c3cc2c1C
The “hERG current change (%, negative = inhibition) at 10uM” value of the first is lower: -6.96% for the first, 15.6% for the second.

Going from `O=C(O)c1cccc(Nc2ccc3nonc3c2[N+](=O)[O-])c1` to `COc1ccc(OCC(=O)NC(=O)c2ccccc2)c([N+](=O)[O-])c1`, the “hERG current change (%, negative = inhibition) at 10uM” value falls from -0.901% to -6.74%.

First: Cc1ccc(NC(=S)NC2CCCC2)c(C)c1
Second: Cc1cccc(NC(=S)NC2CCCC2)c1
The “hERG current change (%, negative = inhibition) at 10uM” value of the first is higher: 13.6% for the first, 0.919% for the second.

Going from `Cc1ccccc1C(=O)N/N=C/c1ccccn1` to `O=C(O)c1ccccc1-c1ccccc1C(=O)NCCCO`, the “hERG current change (%, negative = inhibition) at 10uM” value rises from 5.6% to 16.4%.

Compared with `Cc1ccc(CN(C)C(=O)c2ccc(NS(=O)(=O)c3ccc4[nH]c(=O)[nH]c4c3)cc2)cc1`, `O=c1[nH]c2ccc(S(=O)(=O)Nc3ccc(Cl)cc3)cc2[nH]1` is lower in “hERG current change (%, negative = inhibition) at 10uM” value: 18.3% for the first, 13.8% for the second.

First: COc1ccc(-c2ccnc3cc(C(=O)O)nn23)cc1
Second: COc1ccc(/C=C2\C(=O)NC(=S)N2C(=O)c2ccc(C)cc2)cc1
The “hERG current change (%, negative = inhibition) at 10uM” value of the first is higher: 31.5% for the first, 5.76% for the second.

Going from `C/C=C/c1ccc(OCCn2cncn2)c(OC)c1` to `COc1ccc(CCn2c(-c3ccncc3)n[nH]c2=S)cc1OC`, the “hERG current change (%, negative = inhibition) at 10uM” value rises from -3.39% to 15.7%.

Compared with `CCN(c1ccccc1)S(=O)(=O)c1cc(C(=O)Oc2ccc3c(C)cc(=O)oc3c2)ccc1C`, `Cc1c(NC(=O)COC(=O)c2ccc(O)cc2)c(=O)n(-c2ccccc2)n1C` is higher in “hERG current change (%, negative = inhibition) at 10uM” value: -9.09% for the first, 24.5% for the second.

Compared with `O=C(COC(=O)c1cc(S(=O)(=O)N2CCOCC2)ccc1F)Nc1ccc(Cl)cn1`, `CN(Cc1cccc(F)c1)C(=O)c1cc(S(=O)(=O)N2CCOCC2)ccc1N1CCCC1` is higher in “hERG current change (%, negative = inhibition) at 10uM” value: -37.4% for the first, -24.5% for the second.

Compared with `CCOc1ccc(S(=O)(=O)N2CCOCC2)cc1NC(=O)CN1C(=O)NC2(CCCC2)C1=O`, `COc1ccc(OC)c(CN2CCN(C(=O)CN3C(=O)NC4(CCCC4)C3=O)CC2)c1` is lower in “hERG current change (%, negative = inhibition) at 10uM” value: 5.87% for the first, -5.28% for the second.

Compared with `O=C(CN1CCSCC1)N/N=C/c1ccccc1F`, `O=C(Cc1ccccc1[N+](=O)[O-])N1CCOCC1` is higher in “hERG current change (%, negative = inhibition) at 10uM” value: 0.735% for the first, 13.6% for the second.

Compared with `CO/N=C(/CNC(=O)c1cccc(Cl)c1)c1ccc(Cl)cc1`, `CCN(CCO)C(=O)c1ccc2nc(Cc3cccc(Cl)c3)oc2c1` is higher in “hERG current change (%, negative = inhibition) at 10uM” value: -0.994% for the first, 2.88% for the second.

First: CN(C)c1nc(NS(=O)(=O)c2ccc(Cl)cc2)nc(N(C)C)n1
Second: COc1ccc(S(=O)(=O)NCc2ccccn2)cc1Br
The “hERG current change (%, negative = inhibition) at 10uM” value of the first is lower: -17.5% for the first, 12.5% for the second.

First: CCOc1ccc(NC(=S)N2CCN(S(C)(=O)=O)CC2)cc1
Second: COc1ccc(C(=O)NC(=S)N2CCN(c3ccc([N+](=O)[O-])cc3)CC2)cc1
The “hERG current change (%, negative = inhibition) at 10uM” value of the first is higher: 11.3% for the first, -49.2% for the second.

Going from `CN(C)C(=O)c1cc(C(=O)c2ccccc2C(F)(F)F)c[nH]1` to `CC(C)C(NC(=O)c1ccccc1F)C(=O)NCc1ccc(F)cc1` (stereo not shown), the “hERG current change (%, negative = inhibition) at 10uM” value rises from 1.09% to 3.65%.

Compared with `O=C(c1ccc2c(c1)N(Cc1ccc(F)cc1)C(=O)CS2)N1CCOCC1`, `COc1ccc(CCNC(=O)c2ccc3c(c2)N(Cc2ccc(F)cc2)CCS3)cc1OC` is lower in “hERG current change (%, negative = inhibition) at 10uM” value: 4.55% for the first, -20.9% for the second.

First: CC(C)Cc1nnc(NC(=O)c2ccc3c(c2)NC(=O)C(C)S3)s1 (stereo not shown)
Second: CC(=O)Nc1ccc2c(CSc3nnc(N)s3)cc(=O)oc2c1
The “hERG current change (%, negative = inhibition) at 10uM” value of the first is lower: 1.94% for the first, 4.47% for the second.

Compared with `CC(C)N1CCC(NC(=O)NC2CCCCC2)CC1`, `O=C(NC1CCCC1)c1cc(=O)[nH]c2ccccc12` is higher in “hERG current change (%, negative = inhibition) at 10uM” value: 13.1% for the first, 22% for the second.

Going from `COc1ccc(-n2c(=O)cc(N3CC(C)OC(C)C3)[nH]c2=O)cc1` (stereo not shown) to `COc1ccc(NC(=O)N2CCC(c3nc4ccccc4[nH]3)CC2)cc1`, the “hERG current change (%, negative = inhibition) at 10uM” value rises from 5.84% to 9.26%.

Compared with `CCOC(=O)c1cnc(SCC(=O)Nc2ccc3c(c2)OCCO3)nc1N`, `Cc1cccc(C(=O)OCC(=O)NCC2CCCO2)c1O` (stereo not shown) is higher in “hERG current change (%, negative = inhibition) at 10uM” value: 3.4% for the first, 4.16% for the second.

Going from `Cc1ccnc(NC(=O)C2CCCN(S(=O)(=O)c3ccc4[nH]c(=O)ccc4c3)C2)c1` (stereo not shown) to `CSc1cccc(NC(=O)C2CCCN2S(=O)(=O)c2ccc3c(c2)CCC(=O)N3)c1` (stereo not shown), the “hERG current change (%, negative = inhibition) at 10uM” value falls from 1.84% to -41.9%.

First: COc1ccccc1CN(C)C(=O)c1ccccc1Sc1ccccc1C#N
Second: COc1ccccc1C(CNC(=O)c1cc(C)nc2ccccc12)N(C)C (stereo not shown)
The “hERG current change (%, negative = inhibition) at 10uM” value of the first is lower: -25% for the first, 8.44% for the second.

Going from `COC(=O)C(CCSC)NC(=O)c1cc2c(n(-c3ccccc3)c1=O)CC(C)(C)CC2=O` (stereo not shown) to `Cc1cnc(C(=O)OCC(=O)Nc2cc(-c3cc(C)c(C)cc3C)nn2-c2ccccc2)cn1`, the “hERG current change (%, negative = inhibition) at 10uM” value falls from -11% to -13.3%.

First: Cc1ccc(N(CC(=O)NCc2ccc(F)cc2)S(=O)(=O)c2c(C)nn(C)c2C)cc1
Second: COc1cccc(OC)c1C(=O)N1CCN(S(=O)(=O)c2ccc(C)cc2)CC1
The “hERG current change (%, negative = inhibition) at 10uM” value of the first is lower: -24.5% for the first, 0.852% for the second.

Compared with `Cc1sc2ncn(CC(=O)N(C)C3CCCCC3)c(=O)c2c1C`, `O=c1[nH]c(=O)n(C2CCCCC2)c(O)c1C=NCCCn1ccnc1` is higher in “hERG current change (%, negative = inhibition) at 10uM” value: -1.96% for the first, 7.34% for the second.

Going from `N#Cc1ccccc1N1CCN(C(=O)c2ccc(NC(=O)c3ccc(Br)o3)cc2)CC1` to `CN1CCN(c2ccc(C(CC(N)=O)NC(=O)c3ccccc3)cc2[N+](=O)[O-])CC1` (stereo not shown), the “hERG current change (%, negative = inhibition) at 10uM” value rises from -18.9% to 16.6%.

Compared with `COc1cc(-c2nc3n(n2)C(c2ccncc2)C(C(N)=O)=C(C)N3)cc(OC)c1OC` (stereo not shown), `CCCOCCOC(=O)C1=C(C)NC(=O)NC1c1cc(Cl)c(O)c(OC)c1` (stereo not shown) is lower in “hERG current change (%, negative = inhibition) at 10uM” value: 8.74% for the first, -15.8% for the second.

First: Fc1ccccc1CSc1ncn[nH]1
Second: COc1cc(CNc2ccc3[nH]c(=O)[nH]c3c2)ccc1OCc1ccccc1F
The “hERG current change (%, negative = inhibition) at 10uM” value of the first is lower: -22.2% for the first, 11.6% for the second.

Going from `COc1cc(/C=N/NC(=O)CC#N)ccc1Oc1nc(Cl)ncc1F` to `COc1ccc(CCNC(=O)CSCc2n[nH]c(=O)[nH]2)cc1OC`, the “hERG current change (%, negative = inhibition) at 10uM” value falls from 4.89% to -16.1%.

Going from `CCOC(=O)c1nnsc1NC(C)=O` to `Cc1cccc(C)c1NC(=O)CSc1nnc(Cc2ccccc2)o1`, the “hERG current change (%, negative = inhibition) at 10uM” value falls from 19.2% to -12.6%.

Going from `CCN1CCN(S(=O)(=O)c2c(C)cc(C)cc2C)CC1` to `O=S(=O)(Nc1ccc(N2CCOCC2)cc1)c1cccs1`, the “hERG current change (%, negative = inhibition) at 10uM” value falls from 10.8% to 0.205%.

Going from `CCCNC(=O)N1CCC(C(=O)c2ccc(F)cc2)CC1` to `CC1CCCCC1N1CCN(C(=O)c2cccc(F)c2)CC1.O=C(O)C(=O)O` (stereo not shown), the “hERG current change (%, negative = inhibition) at 10uM” value falls from -2.05% to -17.5%.

First: CC(C)n1c(=S)[nH]c2cc(C(F)(F)F)ccc21
Second: Cc1[nH]n(C(N)=S)c(=O)c1C(c1ccccc1)C(C#N)C#N (stereo not shown)
The “hERG current change (%, negative = inhibition) at 10uM” value of the first is lower: 21.1% for the first, 23.8% for the second.

Compared with `CC(=O)c1c(C)nc(-c2ccc(Cl)cc2Cl)n1O`, `CC1(C)CC(NC(=O)c2cc(Cl)ccc2Cl)CC(C)(C)N1` is lower in “hERG current change (%, negative = inhibition) at 10uM” value: 5.52% for the first, -1.21% for the second.

First: Nn1c(COc2cccc(Br)c2)nnc1SCC(=O)NCC1CCCO1 (stereo not shown)
Second: CC(=O)NCCn1c(SCC(=O)c2ccccc2)nc2ccccc2c1=O
The “hERG current change (%, negative = inhibition) at 10uM” value of the first is higher: -7.31% for the first, -29.9% for the second.

Going from `O=C(O)C1Cn2c(nc3c(c2=O)C2(CCCC2)Cc2ccccc2-3)S1` (stereo not shown) to `COC(=O)C1=C(C)NC(=O)NC1c1cn(-c2ccccc2)nc1-c1cccs1` (stereo not shown), the “hERG current change (%, negative = inhibition) at 10uM” value falls from 17.3% to -2.23%.

Compared with `CC(SC1=NCCN1S(=O)(=O)c1ccccc1)c1ccccc1` (stereo not shown), `CC(C)c1ccc(-c2c(NCCc3ccccc3)c(=O)c2=O)cc1` is higher in “hERG current change (%, negative = inhibition) at 10uM” value: -1.15% for the first, 22.1% for the second.

Compared with `CCCCn1c(N)c(N(CCOC)C(=O)CSCc2ccc(Cl)c(Cl)c2)c(=O)[nH]c1=O`, `CCO[C@@H]1OC(C(=O)NCc2ccccc2)=C[C@H](c2ccc(Br)cc2)[C@H]1CCCO` is lower in “hERG current change (%, negative = inhibition) at 10uM” value: -6.89% for the first, -11.5% for the second.

First: O=C(NN=C1C2CC3CC1CC(Cl)(C3)C2)c1ccccn1
Second: COc1cc(C(=O)N2CCCc3ccccc32)c([N+](=O)[O-])cc1OC
The “hERG current change (%, negative = inhibition) at 10uM” value of the first is lower: -1.74% for the first, 11.1% for the second.

First: COc1ccc2c(=O)c(-c3nc(C)cs3)coc2c1
Second: O=C1CC[C@@H](CN(Cc2ccccc2)Cc2cn[nH]c2-c2cc3ccccc3o2)N1
The “hERG current change (%, negative = inhibition) at 10uM” value of the first is higher: 12.9% for the first, -6.77% for the second.

With `NC(=O)NCC1CC1` the “hERG current change (%, negative = inhibition) at 10uM” value was 13.2%.
